Results published in the supplement of paper PMC8728848.
The other results are listed elsewhere or left out.

How the values were obtained:
Test in all cases: glycan array binding signal (z-score within array); higher = stronger binding
Details in all cases: glycan notation: IUPAC condensed, linker removed
[1] = molecular target: Gal(b1-3)GlcNAc(b1-2)Man(a1-3)[Gal(b1-3)GlcNAc(b1-2)Man(a1-6)]Man(b1-4)GlcNAc(b1-4)[Fuc(a1-6)]GlcNAc
Procedure, shortened: (§1)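 From the Consortium for Functional Glycomics database, 3228 arrays were curated, keeping only those whose protein sequence was available. Binding is given as a within-array Z-score averaged across arrays sharing a protein sequence and across linkers. Negative Z-scores can be read as non-binding.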

[2] = molecular target: Gal(b1-3)GlcNAc(b1-2)Man(a1-3)[GlcNAc(b1-4)][Gal(b1-3)GlcNAc(b1-2)Man(a1-6)]Man(b1-4)GlcNAc(b1-4)GlcNAc
Procedure, shortened: as §1

[3] = molecular target: Gal(b1-3)GlcNAc(b1-2)[Gal(b1-3)GlcNAc(b1-6)]Man(a1-6)[Gal(b1-3)GlcNAc(b1-2)Man(a1-3)]Man(b1-4)GlcNAc(b1-4)GlcNAc
Procedure, shortened: as §1

[4] = molecular target: Gal(b1-3)GlcNAc(b1-3)Gal(b1-3)GlcNAc
Procedure, shortened: as §1

[5] = molecular target: Gal(b1-3)GlcNAc(b1-3)Gal(b1-4)Glc
Procedure, shortened: as §1

[6] = molecular target: Gal(b1-3)GlcNAc(b1-3)Gal(b1-4)GlcNAc
Procedure, shortened: as §1

[7] = molecular target: Gal(b1-3)GlcNAc(b1-3)Gal(b1-4)GlcNAc(b1-2)Man(a1-3)[Gal(b1-3)GlcNAc(b1-3)Gal(b1-4)GlcNAc(b1-2)Man(a1-6)]Man(b1-4)GlcNAc(b1-4)GlcNAc
Procedure, shortened: as §1

[8] = molecular target: Gal(b1-3)GlcNAc(b1-3)Gal(b1-4)GlcNAc(b1-2)[Gal(b1-3)GlcNAc(b1-3)Gal(b1-4)GlcNAc(b1-6)]Man(a1-6)[Gal(b1-3)GlcNAc(b1-3)Gal(b1-4)GlcNAc(b1-2)Man(a1-3)]Man(b1-4)GlcNAc(b1-4)[Fuc(a1-6)]GlcNAc
Procedure, shortened: as §1

[9] = molecular target: Gal(b1-3)GlcNAc(b1-3)Gal(b1-4)GlcNAc(b1-3)Gal(b1-4)GlcNAc(b1-2)[Gal(b1-3)GlcNAc(b1-3)Gal(b1-4)GlcNAc(b1-3)Gal(b1-4)GlcNAc(b1-6)]Man(a1-6)[Gal(b1-3)GlcNAc(b1-3)Gal(b1-4)GlcNAc(b1-3)Gal(b1-4)GlcNAc(b1-2)Man(a1-3)]Man(b1-4)GlcNAc(b1-4)[Fuc(a1-6)]GlcNAc
Procedure, shortened: as §1

[10] = molecular target: Gal(b1-3)GlcNAc(b1-3)Gal(b1-4)GlcNAc(b1-6)[Gal(b1-3)GlcNAc(b1-3)]Gal(b1-4)Glc
Procedure, shortened: as §1

[11] = molecular target: Gal(b1-3)GlcNAc(b1-3)Gal(b1-4)[Fuc(a1-3)]GlcNAc
Procedure, shortened: as §1

[12] = molecular target: Gal(b1-3)GlcNAc(b1-3)Gal(b1-4)[Fuc(a1-3)]GlcNAc(b1-6)[Gal(b1-3)GlcNAc(b1-3)]Gal(b1-4)Glc
Procedure, shortened: as §1

[13] = molecular target: Gal(b1-3)GlcNAc(b1-3)GalNAc
Procedure, shortened: as §1

[14] = molecular target: Gal(b1-3)GlcNAc(b1-6)Gal(b1-4)GlcNAc
Procedure, shortened: as §1

[15] = molecular target: Gal(b1-3)GlcNAc(b1-6)GalNAc
Procedure, shortened: as §1

[16] = molecular target: Gal(b1-3)GlcNAc(b1-6)[Gal(b1-3)]GalNAc
Procedure, shortened: as §1

[17] = molecular target: Gal(b1-3)GlcNAc6S
Procedure, shortened: as §1

[18] = molecular target: Gal(b1-3)[Fuc(a1-4)]GlcNAc
Procedure, shortened: as §1

[19] = molecular target: Gal(b1-3)[Fuc(a1-4)]GlcNAc(b1-2)Man
Procedure, shortened: as §1

[20] = molecular target: Gal(b1-3)[Fuc(a1-4)]GlcNAc(b1-2)Man(a1-3)[Gal(b1-3)[Fuc(a1-4)]GlcNAc(b1-2)Man(a1-6)]Man(b1-4)GlcNAc(b1-4)[Fuc(a1-6)]GlcNAc
Procedure, shortened: as §1

[21] = molecular target: Gal(b1-3)[Fuc(a1-4)]GlcNAc(b1-3)Gal(b1-3)[Fuc(a1-4)]GlcNAc
Procedure, shortened: as §1

[22] = molecular target: Gal(b1-3)[Fuc(a1-4)]GlcNAc(b1-3)Gal(b1-4)[Fuc(a1-3)]GlcNAc
Procedure, shortened: as §1

[23] = molecular target: Gal(b1-3)[Fuc(a1-4)]GlcNAc(b1-6)GalNAc
Procedure, shortened: as §1

[24] = molecular target: Gal(b1-3)[GlcNAc(b1-6)]GalNAc
Procedure, shortened: as §1

[25] = molecular target: Gal(b1-3)[Neu5Ac(a2-6)]GalNAc
Procedure, shortened: as §1

[26] = molecular target: Gal(b1-3)[Neu5Ac(a2-6)]GlcNAc(b1-4)Gal(b1-4)Glc
Procedure, shortened: as §1

[27] = molecular target: Gal(b1-3)[Neu5Ac(b2-6)]GalNAc
Procedure, shortened: as §1

[28] = molecular target: Gal(b1-4)Gal
Procedure, shortened: as §1

[29] = molecular target: Gal(b1-4)GalNAc(a1-3)[Fuc(a1-2)]Gal(b1-4)GlcNAc
Procedure, shortened: as §1

[30] = molecular target: Gal(b1-4)GalNAc(b1-3)[Fuc(a1-2)]Gal(b1-4)GlcNAc
Procedure, shortened: as §1

[31] = molecular target: Gal(b1-4)Glc
Procedure, shortened: as §1

[32] = molecular target: Gal(b1-4)Glc6S
Procedure, shortened: as §1

[33] = molecular target: Gal(b1-4)GlcNAc
Procedure, shortened: as §1

[34] = molecular target: Gal(b1-4)GlcNAc(a1-6)Gal(b1-4)GlcNAc
Procedure, shortened: as §1

[35] = molecular target: Gal(b1-4)GlcNAc(b1-2)Man
Procedure, shortened: as §1

[36] = molecular target: Gal(b1-4)GlcNAc(b1-2)Man(a1-3)Man(b1-4)GlcNAc(b1-4)GlcNAc
Procedure, shortened: as §1

[37] = molecular target: Gal(b1-4)GlcNAc(b1-2)Man(a1-3)[Gal(b1-4)GlcNAc(b1-2)Man(a1-6)]Man(b1-4)GlcNAc(b1-4)GlcNAc
Procedure, shortened: as §1

[38] = molecular target: Gal(b1-4)GlcNAc(b1-2)Man(a1-3)[Gal(b1-4)GlcNAc(b1-2)Man(a1-6)]Man(b1-4)GlcNAc(b1-4)[Fuc(a1-6)]GlcNAc
Procedure, shortened: as §1

[39] = molecular target: Gal(b1-4)GlcNAc(b1-2)Man(a1-3)[Gal(b1-4)GlcNAc(b1-2)Man(a1-6)][Gal(b1-4)GlcNAc(b1-4)]Man(b1-4)GlcNAc(b1-4)[Fuc(a1-6)]GlcNAc
Procedure, shortened: as §1

[40] = molecular target: Gal(b1-4)GlcNAc(b1-2)Man(a1-3)[Gal(b1-4)GlcNAc(b1-2)Man(a1-6)][GlcNAc(b1-4)]Man(b1-4)GlcNAc(b1-4)[Fuc(a1-6)]GlcNAc
Procedure, shortened: as §1

[41] = molecular target: Gal(b1-4)GlcNAc(b1-2)Man(a1-3)[GlcNAc(b1-2)Man(a1-6)]Man(b1-4)GlcNAc(b1-4)GlcNAc
Procedure, shortened: as §1

[42] = molecular target: Gal(b1-4)GlcNAc(b1-2)Man(a1-3)[GlcNAc(b1-4)][Gal(b1-4)GlcNAc(b1-2)Man(a1-6)]Man(b1-4)GlcNAc(b1-4)GlcNAc
Procedure, shortened: as §1

[43] = molecular target: Gal(b1-4)GlcNAc(b1-2)Man(a1-3)[Man(a1-6)]Man(b1-4)GlcNAc(b1-4)GlcNAc
Procedure, shortened: as §1

[44] = molecular target: Gal(b1-4)GlcNAc(b1-2)Man(a1-6)Man(b1-4)GlcNAc(b1-4)GlcNAc
Procedure, shortened: as §1

[45] = molecular target: Gal(b1-4)GlcNAc(b1-2)Man(a1-6)[GlcNAc(b1-2)Man(a1-3)]Man(b1-4)GlcNAc(b1-4)GlcNAc
Procedure, shortened: as §1

B1: RBMC1 (Vibrio cholerae) (protein)
chain: QQSQRVVTADNLMYLRSGFAIDAIGTTVNNLVGGPVQGTNGGVLRAPIALDQLQSVEVTSGLYNWGGYHIVAIKFTMKDGSSVLLGSTHYASNKKVETYTVPQGKRIKQINVWTGGWLVEGFQFVY
- glycan array binding signal (z-score) [1]: 0.912
- glycan array binding signal (z-score) [2]: -0.049
- glycan array binding signal (z-score) [3]: -0.266
- glycan array binding signal (z-score) [4]: -0.311
- glycan array binding signal (z-score) [5]: -0.362
- glycan array binding signal (z-score) [6]: -0.406
- glycan array binding signal (z-score) [7]: 1.19
- glycan array binding signal (z-score) [8]: 0.194
- glycan array binding signal (z-score) [9]: -0.138
- glycan array binding signal (z-score) [10]: -0.289
- glycan array binding signal (z-score) [11]: -0.382
- glycan array binding signal (z-score) [12]: -0.397
- glycan array binding signal (z-score) [13]: -0.347
- glycan array binding signal (z-score) [14]: -0.11
- glycan array binding signal (z-score) [15]: -0.334
- glycan array binding signal (z-score) [16]: -0.368
- glycan array binding signal (z-score) [17]: -0.361
- glycan array binding signal (z-score) [18]: -0.314
- glycan array binding signal (z-score) [19]: -0.309
- glycan array binding signal (z-score) [20]: -0.244
- glycan array binding signal (z-score) [21]: -0.381
- glycan array binding signal (z-score) [22]: -0.3
- glycan array binding signal (z-score) [23]: -0.263
- glycan array binding signal (z-score) [24]: -0.127
- glycan array binding signal (z-score) [25]: -0.332
- glycan array binding signal (z-score) [26]: -0.274
- glycan array binding signal (z-score) [27]: -0.391
- glycan array binding signal (z-score) [28]: -0.312
- glycan array binding signal (z-score) [29]: -0.396
- glycan array binding signal (z-score) [30]: -0.363
- glycan array binding signal (z-score) [31]: -0.301
- glycan array binding signal (z-score) [32]: -0.229
- glycan array binding signal (z-score) [33]: -0.334
- glycan array binding signal (z-score) [34]: -0.36
- glycan array binding signal (z-score) [35]: -0.189
- glycan array binding signal (z-score) [36]: -0.354
- glycan array binding signal (z-score) [37]: 0.571
- glycan array binding signal (z-score) [38]: 1.02
- glycan array binding signal (z-score) [39]: -0.123
- glycan array binding signal (z-score) [40]: -0.324
- glycan array binding signal (z-score) [41]: 1.72
- glycan array binding signal (z-score) [42]: -0.137
- glycan array binding signal (z-score) [43]: 0.105
- glycan array binding signal (z-score) [44]: -0.18
- glycan array binding signal (z-score) [45]: 1.1
